The campaign covered roughly 410,000 compounds. About 7,200 (1.8%) were called active. The shares of active, inactive and inconclusive entries below differ from those in the screen. Calls follow the shape of the dose curve; as a rule, active = well fitted activation curve with a large enough effect; inconclusive = small, poorly fitted or top-dose-only effect, or another doubt; inactive = no such curve, though single readings can be large or run the other way. No potency is given beside an inconclusive call; the fits are too rough.
Assay: qHTS of TDP-43 Inhibitors; also: nearly all actives have a fitted effect of over 50% in size; as to growth rescue (activation): % of control where 0% means no effect
Settings: TDP-43 expressing yeast growth rescue, BacTiter-Glo, 24 h; growth rescue (activation): at 46.1 µM (top of the series) unless noted
Summary of the method: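 In this qHTS, compounds that restore growth of yeast expressing TDP-43 appear as activators. Cells (OD600=0.02, galactose medium, raffinose-pregrown) are incubated with compound 24 hr at 30 deg C and growth is quantified by BacTiter-Glo.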
Potency is read from the fitted curve at half-maximal effect; tags tell the direction and shape of the fitted curve.

Compound	Potency	growth rescue (activation)
Cn1cc(SCC(=O)Nc2nc3ccccc3s2)c2ccccc21	inconclusive [activator, single point]	
COc1ccc(N2CCN(C(=O)c3nn(C)c4c3CSc3ccccc3-4)CC2)cc1	active: 12.6 µM	
CC1=C(C(=O)OCc2ccccc2)C(c2ccccc2Cl)NC(=O)N1CCCCCC(=O)O (stereo not drawn)	active: 35.5 µM	
COc1ccc(C(C)=O)cc1CN1C(=O)C(C)ON=C1c1cccc(C(F)(F)F)c1 (stereo not drawn)	inconclusive [activator, partial curve]	
O=C(CCCCCCCCN1C(=O)c2ccccc2C1=O)N1CCOCC1	inconclusive [activator, single point]	
Cc1ccccc1Nc1nc(N)nc(CSc2ccc(F)cc2)n1	active: 25.1 µM	
CN1CCN(C(=O)c2cc3c(ccc4ccccc43)oc2=O)CC1	inactive	
Cc1cc(C)c(/C=N/NC(=O)c2nnn(-c3nonc3N)c2COc2ccc(F)cc2)c(C)c1	inactive	
O=S(=O)(c1ccccc1)N1CCC2(CC1)OCCN2S(=O)(=O)c1cccs1	inactive	
O=C1CCCN1C(=O)CSc1ccc2ccccc2n1	inconclusive [activator, partial curve, poor fit]	
Cc1ccc(S(=O)(=O)Nc2cc3c(C(=O)OCc4ccccc4)c(C)oc3c3ccccc23)cc1	inconclusive [activator, full curve]	
O=C(C1CCN(c2ncnc3c2nc2n3CCCCC2)CC1)N1CCN(c2ccccc2)CC1	inconclusive [activator, single point]	
Cc1ccc(-n2nnnc2Sc2nc([N+](=O)[O-])nn2C)c(C)c1	inconclusive [activator, single point]	
CN(C(=O)CC(NC(=O)c1ccccc1Cl)c1ccccc1)c1ccccc1 (stereo not drawn)	inconclusive [activator, single point]	
O=C(c1cc(=O)c2ccccc2o1)N1CCN(c2cccc(Cl)c2)CC1	inconclusive [activator, single point]	
CC(C)c1onc(C(=O)Nc2cccnc2Cl)c1[N+](=O)[O-]	inconclusive [activator, single point]	
O=C(OCc1cn([C@@H]2CN(CC3CCCCC3)[C@@H](c3ccc(Cl)cc3)C[C@H]2O)nn1)c1ccccc1	inconclusive [activator, single point]	
COc1ccc(/C(N)=N/OC(=O)CC2CCCCC2)cc1	active: 3.16 µM	
O=C(CS(=O)(=O)c1ccccc1)c1ccc2c(c1)OCCO2	inconclusive [activator, partial curve]	
CCCCCCCCS(=O)c1sc2nc(C)cc(C)c2c1N (stereo not drawn)	inconclusive [activator, partial curve]	
c1cncc(-c2nnc(SCc3cccc4ccccc34)o2)c1	active: 15.8 µM	
CC(c1ccc(F)cc1)n1c(-c2ccc3ccccc3n2)n[nH]c1=S (stereo not drawn)	inconclusive [activator, single point]	
COC(=O)C1CN(C(=O)COc2ccc(Cl)cc2Cl)c2ccccc2O1 (stereo not drawn)	inconclusive [activator, single point]	

Compound	Potency	growth rescue (activation)
COCC(=O)n1nc(NCc2ccc(OC)cc2)nc1NCc1ccc(OC)cc1	active: 17.8 µM	
Cc1ccccc1OCCn1cc(C=O)c2ccccc21	inconclusive [activator, single point]	
O=C(NCCc1ccccc1)c1cc(-c2ccccc2)nc2n[nH]c(-c3ccccc3)c12	inactive	
COc1ccc(/C=C/C(=O)N2CCN(S(=O)(=O)c3ccccc3Br)CC2)cc1OC	active: 22.4 µM	
Cc1cccc(N2C(=O)CSC23CCCCC3)c1		inconclusive: 36.1% [activator]
COC(=O)C(C)N1C(=O)S/C(=C/c2cc(C)n(C(C)C)c2C)C1=O (stereo not drawn)	inconclusive [activator, partial curve]	
COC(=O)c1ccc(OCC(=O)NC2CCCCCC2)cc1	inconclusive [activator, partial curve]	
O=C(c1cc2ccccc2cc1O)N1CCCC(C(F)(F)F)C1 (stereo not drawn)	inconclusive [activator, partial curve]	
Cc1cc(Nc2cccc(Cl)c2)nc2ccc(NC(=O)c3ccc(F)cc3Cl)cc12	active: 20 µM	
CCOc1ccc(Nc2ncnc(N)n2)cc1	inactive	
Clc1ccc2c(c1)Nc1ccccc1CC2	inconclusive [activator, single point]	
Cc1cc(C)c2[nH]c(=S)cc(C)c2c1	inconclusive [activator, partial curve]	
CC(=O)NC(c1ccccc1)c1nc(/C=C/c2ccccc2)cs1 (stereo not drawn)	inconclusive [activator, partial curve]	
O=C(c1cc2ccccc2cc1O)N1CCN(c2cccc(Cl)c2)CC1	active: 11.2 µM	
C=CC[C@@]12C=C(OC)C(=O)C(OC)=C1O[C@H](c1ccc3c(c1)OCO3)[C@H]2C	inconclusive [activator, partial curve]	
CCOC(=O)c1sc(NC(=O)C2CCCCC2)nc1C	inconclusive [activator, partial curve]	
COC(=O)c1c(NC(=O)CCCOc2ccccc2)sc2c1CCC(C)C2 (stereo not drawn)	inconclusive [activator, partial curve]	
CC1(C)Oc2ccc(NC(=O)C3COc4ccccc4O3)cc2O1 (stereo not drawn)	active: 10 µM	
CC(C)(C)c1ccc(OCC(=O)Nc2c(C(=O)c3ccc(F)cc3)oc3ccccc23)cc1	inconclusive [activator, full curve]	
Cc1ccc(-c2cc(C(=O)N(C)Cc3cnn(C)c3C)c3cc(Br)ccc3n2)cc1	inconclusive [activator, single point]	
Cc1ccc2cccc(NC(=S)NC(=O)c3c(Br)cnn3C)c2n1	inconclusive [activator, single point]	
CCn1c(CNC(=O)c2ccccc2F)cc2cc(C)ccc21	inconclusive [activator, full curve, poor fit]	
O=C(CCC1N=C2c3ccccc3N=C(SCc3cccc(Cl)c3)N2C1=O)NCc1cccs1 (stereo not drawn)	inactive	

Compound	Potency	growth rescue (activation)
COc1cccc(C(=O)N(Cc2cccc(Cl)c2)Cc2ccco2)c1	inconclusive [activator, partial curve, poor fit]	
O=S1(=O)N=C(Nc2cccc(C(F)(F)F)c2)c2ccccc21	inconclusive [activator, full curve, poor fit]	
COc1ccc(CN(C)C(=O)Cn2cnc3c(NCc4ccccc4)ncnc32)cc1OC	inconclusive [activator, partial curve]	
CCCNC(=O)c1onc(CSc2nc3ccccc3[nH]2)c1C(=O)NCCC	inconclusive [activator, partial curve]	
O=C(c1cc(COc2cccc3cnccc23)on1)N1CCC(c2ccccc2Cl)C1 (stereo not drawn)	inconclusive [activator, single point]	
Cc1cc(C)c2c(CC(=O)Nc3nnc(CC(C)C)s3)coc2c1	inactive	
CCCc1c(C)[nH]c2nc3ccccc3n2c1=O	inconclusive [activator, single point]	
CCc1ccccc1NC(=O)N1CCc2ccccc2C1	inconclusive [activator, partial curve]	
COc1ccc(OCC(=O)N2CCc3c([nH]c4ccccc34)C2c2ccccn2)cc1 (stereo not drawn)	inconclusive [activator, partial curve]	
COc1cccc(NC(=O)CSc2ccccn2)c1	inconclusive [activator, partial curve]	
Cc1cccc([C@H]2[C@@H]3C=CC[C@@H](C)[C@@H]3C(=O)N2Cc2ccccc2)c1	inconclusive [activator, single point]	
NNc1nc2c(-c3ccc(F)cc3)nnn2c2ccccc12	inconclusive [activator, single point]	
CCC(C)n1c(=N)c(S(=O)(=O)c2ccccc2)cc2c(=O)n3ccccc3nc21 (stereo not drawn)	inactive	
Cc1nn(C)c2c1c(-c1ccccc1)cc(=O)n2CC(=O)NC(C)(C)C	inconclusive [activator, partial curve]	
COC(=O)c1cc(S(=O)(=O)Nc2c(C)cccc2C)cn1C	inconclusive [activator, partial curve]	
O=C1c2ccccc2S(=O)(=O)c2cc(N3CCN(C(=O)c4ccccc4)CC3)ccc21	inactive	
CCCCc1ccc(-c2ccc(C)cc2O)nc1	inconclusive [activator, partial curve]	
Cc1cccc(N2CCN(C(=O)c3ccc(-n4cncn4)c([N+](=O)[O-])c3)CC2)c1C	inconclusive [activator, single point]	
CCn1cc(C(C)NC(=O)Nc2ccc3c(c2)OCO3)c(C)n1 (stereo not drawn)	inconclusive [activator, single point]	
CC(=O)Nc1ccc2c(c1)CCc1ccccc1-2	inconclusive [activator, single point]	
Cc1cc(N)n2nc(C)c(-c3ccc(Cl)cc3)c2n1	inconclusive [activator, partial curve, poor fit]	
Cc1c2cnccc2c(C)c2c1oc1ccccc12	inconclusive [activator, partial curve]	

— PubChem BioAssay AID652104 (National Center for Advancing Translational Sciences (NCATS), 2013)
